# The other results are listed elsewhere or left out. The data describe in vitro nicking of single-stranded DNA by Rep domains at 3 µM enzyme and 37 °C for 1 h; the strands have 90 letters, of which the middle is given. Values are log2 of uncut reads against the no-enzyme pool; strong cutting gives strongly negative numbers. There is no active / inactive call. Because reads are shares of a total, they shift together; values above 0 arise when much of the pool is cut.
# How the values were obtained:
# Assay in all cases: uncleaved DNA left, log2 of reads against the no-enzyme library (log2 ratio); higher = less cleavage (more negative = more Rep cleavage of the k-mer); sequences stand for … in CTCGTCCG…ACCGGAGA
# [1] = system: T1, Rep nickase domain of Muscovy duck circovirus
# T1 sequence (protein, residues 1-111, tag omitted): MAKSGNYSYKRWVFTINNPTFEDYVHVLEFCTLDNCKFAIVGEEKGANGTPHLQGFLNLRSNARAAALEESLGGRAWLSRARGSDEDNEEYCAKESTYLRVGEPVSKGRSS
# Procedure: (§1)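 A pool of 90-nt single-stranded DNAs with seven random bases just before the constant AC of the nick site (name = the seven bases) was cut by 3 µM recombinant His6-SUMO-tagged Rep nickase domain (300 nM DNA, 50 mM HEPES pH 8.0, 50 mM NaCl, 1 mM MnCl2, 1 h, 37 °C, three replicates). Uncut DNA was amplified and sequenced.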
# [2] = system: T2, Rep nickase domain of banana bunchy top virus
# T2 sequence (protein, residues 1-94, tag omitted): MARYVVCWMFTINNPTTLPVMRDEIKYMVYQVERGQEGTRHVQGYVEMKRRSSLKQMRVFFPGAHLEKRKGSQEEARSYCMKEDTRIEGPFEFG
# Procedure: as §1
# [3] = system: T3, Rep nickase domain of cabbage leaf curl virus
# T3 sequence (protein, residues 1-116, tag omitted): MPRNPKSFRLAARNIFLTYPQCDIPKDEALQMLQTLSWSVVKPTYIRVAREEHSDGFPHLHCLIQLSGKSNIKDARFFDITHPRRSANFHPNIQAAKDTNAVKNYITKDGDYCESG
# Procedure: as §1
# [4] = system: T4, Rep nickase domain of chickpea chlorotic dwarf virus
# T4 sequence (protein, residues 1-124, tag omitted): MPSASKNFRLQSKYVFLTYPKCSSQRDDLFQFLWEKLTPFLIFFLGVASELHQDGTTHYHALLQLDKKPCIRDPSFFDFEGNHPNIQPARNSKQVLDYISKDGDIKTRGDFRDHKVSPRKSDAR
# Procedure: as §1
# [5] = system: T5, Rep nickase domain of faba bean necrotic yellows virus
# T5 sequence (protein, residues 1-98, tag omitted): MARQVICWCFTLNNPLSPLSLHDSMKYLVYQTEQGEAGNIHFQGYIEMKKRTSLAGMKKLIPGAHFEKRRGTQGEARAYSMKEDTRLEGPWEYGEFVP
# Procedure: as §1
# [6] = system: T6, Rep nickase domain of maize striate mosaic virus
# T6 sequence (protein, residues 1-117, tag omitted): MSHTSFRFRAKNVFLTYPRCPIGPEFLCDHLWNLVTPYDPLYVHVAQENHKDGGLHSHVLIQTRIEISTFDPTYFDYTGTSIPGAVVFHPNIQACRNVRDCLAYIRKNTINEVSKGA
# Procedure: as §1
# [7] = system: T7, Rep nickase domain of porcine circovirus 2
# T7 sequence (protein, residues 2-116, tag omitted): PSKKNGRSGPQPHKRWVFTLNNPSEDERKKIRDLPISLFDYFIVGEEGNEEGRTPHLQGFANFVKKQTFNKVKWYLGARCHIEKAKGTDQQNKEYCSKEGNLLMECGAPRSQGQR
# Procedure: as §1
# [8] = system: T8, Rep nickase domain of tomato golden mosaic virus
# T8 sequence (protein, residues 1-124, tag omitted): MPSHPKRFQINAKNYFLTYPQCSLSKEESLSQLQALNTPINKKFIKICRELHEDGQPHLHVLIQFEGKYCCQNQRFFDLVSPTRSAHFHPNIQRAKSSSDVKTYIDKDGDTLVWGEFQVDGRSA
# Procedure: as §1
# [9] = system: T9, Rep nickase domain of tomato yellow leaf curl virus
# T9 sequence (protein, residues 1-136, tag omitted): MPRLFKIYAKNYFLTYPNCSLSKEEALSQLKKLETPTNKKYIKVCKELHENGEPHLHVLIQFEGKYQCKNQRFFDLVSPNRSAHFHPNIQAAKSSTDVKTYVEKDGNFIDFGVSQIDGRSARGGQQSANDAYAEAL
# Procedure: as §1
# [10] = system: T10, Rep nickase domain of wheat dwarf virus
# T10 sequence (protein, residues 1-137, tag omitted): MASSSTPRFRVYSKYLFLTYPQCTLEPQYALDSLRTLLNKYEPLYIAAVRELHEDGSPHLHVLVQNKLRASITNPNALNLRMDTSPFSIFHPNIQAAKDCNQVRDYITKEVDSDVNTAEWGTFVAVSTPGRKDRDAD
# Procedure: as §1
Sequence,uncleaved DNA left (log2) [1],uncleaved DNA left (log2) [2],uncleaved DNA left (log2) [3],uncleaved DNA left (log2) [4],uncleaved DNA left (log2) [5],uncleaved DNA left (log2) [6],uncleaved DNA left (log2) [7],uncleaved DNA left (log2) [8],uncleaved DNA left (log2) [9],uncleaved DNA left (log2) [10]
TCCTGAG,-0.0253,-0.0119,0.022,0.824,-0.0955,0.779,0.0949,0.216,0.146,0.000903
GCGCCGC,-0.169,0.059,-0.185,-0.0151,-0.0954,-0.116,0.0898,-0.133,-0.00696,-0.0562
GAGTATT,-2.36,-2.67,-1.63,-1.82,-2.81,1.11,-3.08,-0.973,0.194,-0.481
GCAGTCG,0.144,0.157,-0.695,0.0961,0.0561,-0.702,0.21,0.0463,0.115,0.022
CTAACGT,0.126,0.115,-0.2,-0.607,0.1,-0.632,0.14,0.0879,0.000225,0.12
CGTCCGT,0.0262,0.0695,-0.0175,0.117,-0.0279,0.312,-0.000252,-0.053,0.0916,-0.0141
TAATTGA,-0.0796,0.12,-2.71,-2.62,0.111,-1.56,-0.104,-0.34,0.0924,-0.772
TTCATTA,-0.153,-0.149,0.0564,-0.796,-0.0834,-0.297,-0.272,-0.157,-0.206,-0.0758
CACCATA,0.0641,0.0646,-0.271,-2.25,0.145,-0.826,-0.249,-0.0888,0.0191,0.0326
GCCCTGT,-0.00811,-0.0788,-0.0123,0.0815,-0.0865,0.111,-0.0669,-0.114,-0.0873,-0.221
CGTTATA,-0.077,0.0836,-0.00778,-0.722,-0.0169,-0.0893,-0.0821,-0.0328,0.00631,0.0901
TGCCAGG,0.0108,-0.0386,0.371,0.951,0.0947,1.04,0.0813,0.0537,-0.0942,-0.0268
GTTCAGG,0.00275,-0.0588,0.347,1.26,-0.0133,1.71,0.0669,0.0738,-0.109,0.1
AGCTTTA,0.0787,0.0633,-0.0898,-0.566,0.00627,0.0476,-1.38,0.0891,0.0243,0.157
TGAGGTA,0.139,0.201,0.47,1.08,0.155,1.49,0.229,0.253,0.0876,0.188
CAGTACT,-3.7,-3.62,-2.21,-3.14,-3.6,-0.847,-3.98,-1.1,-0.225,-0.528
CGCATCT,-0.0244,-0.114,-0.3,-1.61,-0.148,-0.659,-0.254,-0.154,-0.087,-0.199
ATGAGGC,0.0932,0.0367,0.097,0.117,-0.0338,-0.78,0.176,0.00226,0.0605,0.00892
TTATTAT,-2.04,-0.107,-1.77,-2.09,0.0119,-0.439,-1.68,-0.352,0.107,-0.384
AGTGGTG,0.00454,-0.0402,-0.141,0.163,-0.0132,0.646,0.0588,0.0436,-0.0692,-0.073
CGGTTGC,-0.113,0.0592,-0.414,-0.322,-0.0468,-0.684,0.0649,-0.111,0.0958,-0.154
CGTCATT,-0.0744,-0.0247,0.119,-0.96,-0.126,0.147,-1.87,-0.0846,0.135,0.0554
TGTACTG,0.0182,0.0393,-0.0225,0.621,0.00766,1.53,0.062,-0.0583,0.0376,0.0679
CCGGGCT,0.0413,0.0319,0.261,0.405,-0.0354,0.851,0.08,0.015,-0.0502,-0.0993
GCCTTAT,0.0974,0.177,0.481,0.482,0.257,0.585,-0.399,0.274,0.298,0.271
GCACTTC,-0.124,0.054,0.0494,0.158,-0.103,-0.275,-0.0583,-0.151,-0.0545,-0.0268
GCTTGCT,-0.099,-0.0238,-0.44,-0.44,-0.087,-0.874,-0.505,-0.0872,0.052,-0.0807
GTTAGCA,-0.0636,0.065,0.311,0.828,0.0127,1.53,0.0974,0.0296,0.0565,0.0503
GATCGCT,-0.0276,-0.0815,-0.238,-0.765,-0.0427,-0.447,-0.258,-0.195,-0.0677,-0.0197
CGCTAGG,0.0891,0.0297,0.0617,0.808,0.228,0.386,0.197,0.146,0.124,0.121

# Reference: the supplement of paper PMC7826260
